One assay deals with HSkMC. The experiment in a line: cytotoxicity call (relative viability < 0.9). The following applies: 10 µM.
The subject of a further assay is HepG2. The experiment in a line: cytotoxicity call (relative viability < 0.9). The following applies: 10 µM.
In the next assay the test system is S. aureus RN4220. Put plainly: growth inhibition call (relative growth <= 0.2). The conditions noted are these: 50 µM.

The structures appear in SMILES notation. Some of the results follow.

With `Cc1cccc(S(=O)(=O)N2C[C@@H](O)COC[C@@H]3O[C@@H](CC(=O)NCc4ccc5c(c4)OCO5)CC[C@H]32)c1`, the cytotoxicity call in the assay on HSkMC and in the assay on HepG2 was “inactive” each time. For the same molecule, in the assay on S. aureus RN4220, the growth inhibition call was “inactive”.

In the case of `C[C@@H]1CN([C@@H](C)CO)C(=O)c2cc(NC(=O)Nc3ccc(C(F)(F)F)cc3)ccc2O[C@@H](C)CCCCO[C@H]1CN(C)C`, the cytotoxicity call in the assay with HSkMC and in the assay with HepG2 was “inactive” each time. Also, the growth inhibition call in the assay on S. aureus RN4220 is “inactive”.

Turning to `CCOC(=O)c1cc2c(c(-c3cccc(Br)c3)n1)[C@@H](CCO[Si](C)(C)C(C)(C)C)N(S(=O)(=O)C(C)(C)C)C2`, the cytotoxicity call in the assay on HSkMC and in the assay with HepG2 was “inactive” throughout. Moreover, in the assay on S. aureus RN4220, the growth inhibition call was “inactive”.

For the molecule `Cc1noc(C)c1NC(=O)Nc1ccc2c(c1)C(=O)N([C@H](C)CO)C[C@H](C)[C@@H](CN(C)Cc1ccc(C(=O)O)cc1)OCCCC[C@H](C)O2`, the cytotoxicity call in the assay on HSkMC and with HepG2 was “inactive” in each case. Also, in the assay on S. aureus RN4220, the growth inhibition call was “inactive”.

Take `C[C@H](CO)N1C[C@H](C)[C@H](CN(C)Cc2ccncc2)Oc2c(NS(=O)(=O)c3cn(C)cn3)cccc2C1=O`: the cytotoxicity call in the assay with HSkMC and in the assay on HepG2 was “inactive” in each case. Also, the growth inhibition call with S. aureus RN4220 is “inactive”.

For the molecule `Cc1noc(C)c1S(=O)(=O)Nc1ccc2c(c1)C(=O)N([C@@H](C)CO)C[C@@H](C)[C@@H](CN(C)CC1CCCCC1)OCCCC[C@@H](C)O2`, the cytotoxicity call with HSkMC and with HepG2 was “inactive” throughout. In addition, the growth inhibition call in the assay with S. aureus RN4220 was “inactive”.

For `Cc1noc(C)c1NC(=O)N(C)C[C@H]1Oc2ccc(NS(=O)(=O)c3cccs3)cc2CC(=O)N([C@@H](C)CO)C[C@H]1C`, the cytotoxicity call with HSkMC and in the assay with HepG2 was “inactive” in each case. In addition, the growth inhibition call with S. aureus RN4220 is “inactive”.

Take `O=Cc1ccccc1O[C@@H]1O[C@H](CO)[C@H](O)[C@@H](O)[C@H]1O`: the cytotoxicity call in the assay with HSkMC and with HepG2 was “inactive” each time. In addition, in the assay with S. aureus RN4220, the growth inhibition call is “inactive”.

With `COc1ccc(CN(C)C[C@H]2OCCCC[C@@H](C)Oc3ccc(NC(=O)Nc4ccccc4)cc3C(=O)N([C@@H](C)CO)C[C@@H]2C)cc1`, the cytotoxicity call with HSkMC and with HepG2 was “inactive” each time. Besides, in the assay with S. aureus RN4220, the growth inhibition call is “inactive”.

Regarding `O=C(Nc1cc(Cl)ccc1Cl)c1cc(Br)ccc1NS(=O)(=O)c1ccc(Cl)c([N+](=O)[O-])c1`, the cytotoxicity call in the assay on HSkMC was “inactive”. For the same molecule, the cytotoxicity call in the assay on HepG2 was “active”. Moreover, in the assay on S. aureus RN4220, the growth inhibition call is “active”.

As for `C[C@@H]1CN([C@@H](C)CO)C(=O)Cc2cc(NS(C)(=O)=O)ccc2O[C@@H]1CN(C)S(=O)(=O)c1cccs1`, the cytotoxicity call in the assay on HSkMC and with HepG2 was “inactive” throughout. Besides, in the assay with S. aureus RN4220, the growth inhibition call is “inactive”.

As to `C[C@H](CO)N1C[C@H](C)[C@H](CN(C)C(=O)C2CCCCC2)OCCCC[C@H](C)Oc2ccc(NS(=O)(=O)c3ccccc3)cc2C1=O`, the cytotoxicity call in the assay with HSkMC and in the assay with HepG2 was “inactive” in each case. Also, the growth inhibition call in the assay on S. aureus RN4220 is “inactive”.

Consider `C[C@@H]1CCCCO[C@H](CN(C)C(=O)Nc2cccc3ccccc23)[C@@H](C)CN([C@@H](C)CO)C(=O)c2cc(NC(=O)c3ccncc3)ccc2O1`, for which the cytotoxicity call in the assay on HSkMC and in the assay with HepG2 was “active” in each case. Also, the growth inhibition call in the assay with S. aureus RN4220 is “inactive”.

As to `COC(=O)CCn1cc(F)c(N)nc1=O`, the cytotoxicity call in the assay with HSkMC and with HepG2 was “inactive” throughout. For the same molecule, the growth inhibition call in the assay with S. aureus RN4220 was “inactive”.

For `C[C@@H]1CN([C@H](C)CO)C(=O)c2cc(NC(=O)NC3CCCCC3)ccc2O[C@@H](C)CCCCO[C@@H]1CN(C)Cc1ccc2c(c1)OCO2`, the cytotoxicity call in the assay on HSkMC is “inactive”. In addition, the cytotoxicity call in the assay with HepG2 is “active”. Also, the growth inhibition call in the assay with S. aureus RN4220 was “inactive”.

For `Cc1ccc(S(=O)(=O)N(C)C[C@@H]2Oc3c(NS(=O)(=O)c4cn(C)cn4)cccc3C(=O)N([C@H](C)CO)C[C@@H]2C)cc1`, the cytotoxicity call in the assay on HSkMC and with HepG2 was “inactive” in each case. Moreover, the growth inhibition call with S. aureus RN4220 is “inactive”.

As to `Cc1noc(C)c1NC(=O)N(C)C[C@@H]1OCCCC[C@H](C)Oc2ccc(NC(=O)C3CCCCC3)cc2C(=O)N([C@@H](C)CO)C[C@@H]1C`, the cytotoxicity call with HSkMC and in the assay on HepG2 was “inactive” in each case. Also, the growth inhibition call with S. aureus RN4220 was “inactive”.

As for `COc1ccc(S(=O)(=O)N2C[C@@H](O)COC[C@H]3O[C@@H](CC(=O)NCCN4CCCCC4)CC[C@@H]32)cc1`, the cytotoxicity call in the assay on HSkMC and in the assay with HepG2 was “inactive” throughout. Moreover, in the assay on S. aureus RN4220, the growth inhibition call is “inactive”.

On to `Cc1noc(C)c1NC(=O)N(C)C[C@@H]1Oc2c(NS(=O)(=O)c3cn(C)cn3)cccc2C(=O)N([C@@H](C)CO)C[C@@H]1C`, for which the cytotoxicity call with HSkMC and in the assay on HepG2 was “inactive” throughout. For the same molecule, the growth inhibition call in the assay with S. aureus RN4220 was “inactive”.

With `C[C@H]1CN([C@@H](C)CO)C(=O)Cc2cc(NC(=O)C3CCCCC3)ccc2O[C@@H]1CN(C)S(=O)(=O)c1cn(C)cn1`, the cytotoxicity call in the assay with HSkMC and with HepG2 was “inactive” throughout. Besides, the growth inhibition call in the assay on S. aureus RN4220 is “inactive”.

With `COCC(=O)N1C[C@]2(C1)CN([C@@H](CO)c1[nH]c3cc(ccc3c12)OC)S(=O)(=O)C`, the cytotoxicity call in the assay with HSkMC and in the assay on HepG2 was “inactive” each time. The growth inhibition call in the assay with S. aureus RN4220 is “inactive”.

On to `OC[C@H]1COc2ccccc2O1`, for which the cytotoxicity call with HSkMC and with HepG2 was “inactive” in each case. Also, the growth inhibition call in the assay on S. aureus RN4220 is “inactive”.

With `C[C@H]1CN([C@@H](C)CO)C(=O)c2cc(NC(=O)CCN3CCOCC3)ccc2O[C@H]1CN(C)S(=O)(=O)c1cccs1`, the cytotoxicity call in the assay on HSkMC and in the assay with HepG2 was “inactive” each time. Moreover, the growth inhibition call in the assay on S. aureus RN4220 was “inactive”.

As to `COc1ccc(C#Cc2ccc([C@H]3[C@@H](CO)N4CCCCN(S(=O)(=O)c5cn(C)cn5)C[C@@H]34)cc2)cc1`, the cytotoxicity call in the assay on HSkMC (human skeletal muscle cells) and in the assay on HepG2 was “inactive” in each case. Moreover, the growth inhibition call in the assay with S. aureus RN4220 is “inactive”.

Turning to `CN(C)CC(=O)N[C@@H]1CC[C@@H](CCn2cc(CN(C)C)nn2)O[C@@H]1CO`, the cytotoxicity call in the assay with HSkMC and in the assay with HepG2 was “inactive” in each case. Moreover, the growth inhibition call with S. aureus RN4220 was “inactive”.

These data come from the antibiotic and cytotoxicity screens of Wong et al. (2023).
